These results are taken from publication PMC7819943, “Rice protein-binding microarrays: a tool to detect cis-acting elements near promoter regions in rice”.

Some of the results follow.

The assay addresses T1, OsWOX13 (Oryza sativa, UniProt Q5QMM3 1-267).
T1 sequence: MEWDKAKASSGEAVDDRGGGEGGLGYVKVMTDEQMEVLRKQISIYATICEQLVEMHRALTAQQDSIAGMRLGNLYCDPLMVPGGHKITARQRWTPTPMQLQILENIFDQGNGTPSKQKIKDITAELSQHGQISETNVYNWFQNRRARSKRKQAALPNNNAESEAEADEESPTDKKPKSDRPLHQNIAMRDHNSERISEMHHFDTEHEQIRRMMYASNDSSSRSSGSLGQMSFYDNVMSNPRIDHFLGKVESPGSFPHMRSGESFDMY
Briefly: protein-binding microarray (RPBM); PBS, 2% BSA, 51.3 ng/ul salmon testes DNA, 50 uM zinc acetate, 200 nM TF, 25 C, 1 h; high values mean tight binding. Particulars: protein: recombinant; tags: N-terminal polyhistidine and DsRed monomer fusion (pET32a); label: CyDye5-dUTP incorporated in the synthesized complementary strand; 3' TTTTT single-stranded linker to array surface; dsDNA, one strand shown. In short, it runs like this: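 Using Ni–NTA, transcription factors fused N-terminally to polyhistidine and DsRed were purified after expression in E. coli BL21-CodonPlus. These were incubated at 200 nM with a blocked, double-stranded custom Agilent array for 1 h at 25 °C in a buffer containing 50 µM zinc acetate, and the array was washed. The binding signal is per-feature fluorescence intensity (arbitrary units) on an Axon 4000B scanner.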
Regarding “TAAAATAATTTGGTTATATTTGTAATCTCTATATACCCAACGGAGTCACCTAGTGCAG”, the binding signal was 6210 fluorescence intensity (a.u.).

As for “AGTTGATTGGCACTGGCACACGGCATGTGTTCGCTCGAACCGGAGTCACCTAGTGCAG”, the binding signal was 42100 fluorescence intensity (a.u.).

Turning to “ATGTTAACTGAAAGTTGAGCTGCAAAACATAATAATTTGCCGGAGTCACCTAGTGCAG”, the binding signal was 6980 fluorescence intensity (a.u.).

For “TCGCTAATAAATCATATGATGTCATGGGCCCGAGACATCTCGGAGTCACCTAGTGCAG”, the binding signal was 3380 fluorescence intensity (a.u.).

Consider “TAGTTAATTGTTGTTGCCACACTCAAGCTAGCTAGGTGTACGGAGTCACCTAGTGCAG”, for which the binding signal is 28700 fluorescence intensity (a.u.).

Take “TGAAAATTGCACTTGATTTCCTCAATAATTGCAGATGCTACGGAGTCACCTAGTGCAG”: the binding signal is 41800 fluorescence intensity (a.u.).

Take “GTCTGATCTAATCTAAACGGGCCTATAAAATGACGGCAGCCGGAGTCACCTAGTGCAG”: the binding signal is 6020 fluorescence intensity (a.u.).

As to “TAATTAAATACAAACTAATTGACCTCACGGGATTAAATTCCGGAGTCACCTAGTGCAG”, the binding signal is 11900 fluorescence intensity (a.u.).

As to “CATTAGATTAGTTTGCTATACTTGCTACTACTAGTACAATCGGAGTCACCTAGTGCAG”, the binding signal was 22000 fluorescence intensity (a.u.).

Regarding “TGTCATGTTGCTAATTTAAATTCTGCGCACGATAGCCTCTCGGAGTCACCTAGTGCAG”, the binding signal was 3430 fluorescence intensity (a.u.).

On to “AGAACTAAACTAATTTATGTGAAATTCCTGCCTATTTTGACGGAGTCACCTAGTGCAG”, for which the binding signal was 7390 fluorescence intensity (a.u.).

Take “GATATACTGTGATTTGAACCTGTTCCAGCTCTGAGGAAAACGGAGTCACCTAGTGCAG”: the binding signal was 8830 fluorescence intensity (a.u.).

With “CTAAATTATACGGAGATGATAATGTAGTTACAGTGCAGTTCGGAGTCACCTAGTGCAG”, the binding signal was 21900 fluorescence intensity (a.u.).

Regarding “AAAATAAACACATTATTAATTTGTCTTACAAAATAGTACTCGGAGTCACCTAGTGCAG”, the binding signal was 18900 fluorescence intensity (a.u.).

In the case of “ATAATGATATAAATATATTTAGTAATAGTGAATTATGGGCCGGAGTCACCTAGTGCAG”, the binding signal was 9340 fluorescence intensity (a.u.).

Regarding “TTAATAGACAATGACTAATGAAATGCCTTCCTAAAAGCCCCGGAGTCACCTAGTGCAG”, the binding signal is 11600 fluorescence intensity (a.u.).

As to “AAAATACTTAAAATTATGTCATAATTATTAAAATATCTGACGGAGTCACCTAGTGCAG”, the binding signal is 4900 fluorescence intensity (a.u.).

On to “TCTCCCATTGATTTGCAGCTTGTTGTCAAAATGTGCTTGTCGGAGTCACCTAGTGCAG”, for which the binding signal was 14900 fluorescence intensity (a.u.).

Regarding “ATGTCTCTAATTGTCTTCCAAATTTCCTCCTCCCCGAAGTCGGAGTCACCTAGTGCAG”, the binding signal was 13100 fluorescence intensity (a.u.).

As for “GATAACAGCACCAATCTTAACATTGCAGCTTATTACACACCGGAGTCACCTAGTGCAG”, the binding signal was 4370 fluorescence intensity (a.u.).

Regarding “GATATAATTGCCACGTAAGCGCCACGTCAATGCCACGTGCCGGAGTCACCTAGTGCAG”, the binding signal is 19400 fluorescence intensity (a.u.).

On to “CCTAATTAATTCACCAGACGAAGTTAGTGTAATCCGAGGACGGAGTCACCTAGTGCAG”, for which the binding signal was 28300 fluorescence intensity (a.u.).

“GGAAGGAGTAATTGCTAAACCCAATACGGTGATAGGCCGCCGGAGTCACCTAGTGCAG”: the binding signal was 3460 fluorescence intensity (a.u.).

For “TCCAAATAATTAAGTTGTCGCATAACTTCTTATCTTATTGCGGAGTCACCTAGTGCAG”, the binding signal is 9760 fluorescence intensity (a.u.).

With “ATGCAGATGCTAATTGATCTTGAGGTCTGTGCAAGTCTTTCGGAGTCACCTAGTGCAG”, the binding signal is 14300 fluorescence intensity (a.u.).

With “GAATAATCACAAGCTGTTTCTATCTGGATCAAATCTGATGCGGAGTCACCTAGTGCAG”, the binding signal is 3660 fluorescence intensity (a.u.).

Take “TCCCTTGATATGATGATAAATCCACTGATATTTGGACCGCCGGAGTCACCTAGTGCAG”: the binding signal was 7520 fluorescence intensity (a.u.).

On to “ACATATAATTGCCACGTCAGCGCCACATCAATGCCACGTGCGGAGTCACCTAGTGCAG”, for which the binding signal was 23200 fluorescence intensity (a.u.).

“CAAAACTTAATTAAACATAAGCTAATGGGCCGTTTTCATTCGGAGTCACCTAGTGCAG”: the binding signal was 6880 fluorescence intensity (a.u.).

In the case of “TATATATATATATATATATAGAGAGAGAGAGAGAGATTATCGGAGTCACCTAGTGCAG”, the binding signal is 6530 fluorescence intensity (a.u.).

As for “ACGGATTAATTAGGCTCAAAAGATTCGTCTCGCAGTTTACCGGAGTCACCTAGTGCAG”, the binding signal is 24000 fluorescence intensity (a.u.).

On to “CGTTCTACTCTTGATTTGAATTAGGGATGCAAGCGGGACGCGGAGTCACCTAGTGCAG”, for which the binding signal was 5150 fluorescence intensity (a.u.).

As for “ACATTAACGGCAAATCACTGTAGCACATTCATTCAATGCACGGAGTCACCTAGTGCAG”, the binding signal was 11600 fluorescence intensity (a.u.).

Turning to “ACAATTTGAGCATGATTTATATTCTACATATTTTAAAGTTCGGAGTCACCTAGTGCAG”, the binding signal was 5480 fluorescence intensity (a.u.).

With “TTAACTGGGGCATGAAAAGTGATTGTACGGAGCAAAGTGTCGGAGTCACCTAGTGCAG”, the binding signal was 4170 fluorescence intensity (a.u.).

For the sequence “ATTTTAACTAATTTTAAATTGTATTCCTACTTGAACTCTTCGGAGTCACCTAGTGCAG”, the binding signal is 26800 fluorescence intensity (a.u.).

In the case of “CATTAATGATGTGGAATAACAATGCAACTTAAACTTACAGCGGAGTCACCTAGTGCAG”, the binding signal is 7110 fluorescence intensity (a.u.).

As for “CAAATTTAACTCAAAATTAAATCTTCAATATTTATTTTGCCGGAGTCACCTAGTGCAG”, the binding signal was 20500 fluorescence intensity (a.u.).

As to “AATAATGATATGATTGAAAATAGCATTAATCTGAACAGCCCGGAGTCACCTAGTGCAG”, the binding signal is 50400 fluorescence intensity (a.u.).

As to “TTAATGACATATAAACAATGAGATGGCATCCCCTCGAGCGCGGAGTCACCTAGTGCAG”, the binding signal is 4840 fluorescence intensity (a.u.).

Consider “CTCTCGACAATTTTAAATTAAAATTTCGACAGCAGAAAATCGGAGTCACCTAGTGCAG”, for which the binding signal is 4070 fluorescence intensity (a.u.).

Regarding “TGGGGATTGAGAGCATTTGAATTAGGGAGCAAGAGTTTCACGGAGTCACCTAGTGCAG”, the binding signal was 5000 fluorescence intensity (a.u.).
